Results published in the supplement of paper PMC12423691.
Some of the results follow. Binding of human transcription factors and regulators to the viral nucleoprotein by AlphaScreen, crude cell-free proteins, amounts not normalised, one pass. Fold of the Venus control; higher = more signal. No active / inactive call. Single-pass screen; sequences are the whole Swiss-Prot entries looked up by name.

B1: PGBD1, Q96JS3 (protein)
chain: MYEALPGPAPENEDGLVKVKEEDPTWEQVCNSQEGSSHTQEICRLRFRHFCYQEAHGPQEALAQLRELCHQWLRPEMHTKEQIMELLVLEQFLTILPKELQPCVKTYPLESGEEAVTVLENLETGSGDTGQQASVYIQGQDMHPMVAEYQGVSLECQSLQLLPGITTLKCEPPQRPQGNPQEVSGPVPHGSAHLQEKNPRDKAVVPVFNPVRSQTLVKTEEETAQAVAAEKWSHLSLTRRNLCGNSAQETVMSLSPMTEEIVTKDRLFKAKQETSEEMEQSGEASGKPNRECAPQIPCSTPIATERTVAHLNTLKDRHPGDLWARMHISSLEYAAGDITRKGRKKDKARVSELLQGLSFSGDSDVEKDNEPEIQPAQKKLKVSCFPEKSWTKRDIKPNFPSWSALDSGLLNLKSEKLNPVELFELFFDDETFNLIVNETNNYASQKNVSLEVTVQEMRCVFGVLLLSGFMRHPRREMYWEVSDTDQNLVRDAIRRDRFELIFSNLHFADNGHLDQKDKFTKLRPLIKQMNKNFLLYAPLEEYYCFDKSMCECFDSDQFLNGKPIRIGYKIWCGTTTQGYLVWFEPYQEESTMKVDEDPDLGLGGNLVMNFADVLLERGQYPYHLCFDSFFTSVKLLSALKKKGVRATGTIRENRTEKCPLMNVEHMKKMKRGYFDFRIEENNEIILCRWYGDGIISLCSNAVGIEPVNEVSCCDADNEEIPQISQPSIVKVYDECKEGVAKMDQIISKYRVRIRSKKWYSILVSYMIDVAMNNAWQLHRACNPGASLDPLDFRRFVAHFYLEHNAHLSD
B2: MYOG, P15173 (protein)
chain: MELYETSPYFYQEPRFYDGENYLPVHLQGFEPPGYERTELTLSPEAPGPLEDKGLGTPEHCPGQCLPWACKVCKRKSVSVDRRRAATLREKRRLKKVNEAFEALKRSTLLNPNQRLPKVEILRSAIQYIERLQALLSSLNQEERDLRYRGGGGPQPGVPSECSSHSASCSPEWGSALEFSANPGDHLLTADPTDAHNLHSLTSIVDSITVEDVSVAFPDETMPN
B3: FOXP4, Q8IVH2 (protein)
chain: MMVESASETIRSAPSGQNGVGSLSGQADGSSGGATGTTASGTGREVTTGADSNGEMSPAELLHFQQQQALQVARQFLLQQASGLSSPGNNDSKQSASAVQVPVSVAMMSPQMLTPQQMQQILSPPQLQALLQQQQALMLQQLQEYYKKQQEQLHLQLLTQQQAGKPQPKEALGNKQLAFQQQLLQMQQLQQQHLLNLQRQGLVSLQPNQASGPLQTLPQAAVCPTDLPQLWKGEGAPGQPAEDSVKQEGLDLTGTAATATSFAAPPKVSPPLSHHTLPNGQPTVLTSRRDSSSHEETPGSHPLYGHGECKWPGCETLCEDLGQFIKHLNTEHALDDRSTAQCRVQMQVVQQLEIQLAKESERLQAMMAHLHMRPSEPKPFSQPLNPVPGSSSFSKVTVSAADSFPDGLVHPPTSAAAPVTPLRPPGLGSASLHGGGPARRRSSDKFCSPISSELAQNHEFYKNADVRPPFTYASLIRQAILETPDRQLTLNEIYNWFTRMFAYFRRNTATWKNAVRHNLSLHKCFVRVENVKGAVWTVDEREYQKRRPPKMTGSPTLVKNMISGLSYGALNASYQAALAESSFPLLNSPGMLNPGSASSLLPLSHDDVGAPVEPLPSNGSSSPPRLSPPQYSHQVQVKEEPAEAEEDRQPGPPLGAPNPSASGPPEDRDLEEELPGEELS
B4: ELK4, P28324 (protein)
chain: MDSAITLWQFLLQLLQKPQNKHMICWTSNDGQFKLLQAEEVARLWGIRKNKPNMNYDKLSRALRYYYVKNIIKKVNGQKFVYKFVSYPEILNMDPMTVGRIEGDCESLNFSEVSSSSKDVENGGKDKPPQPGAKTSSRNDYIHSGLYSSFTLNSLNSSNVKLFKLIKTENPAEKLAEKKSPQEPTPSVIKFVTTPSKKPPVEPVAATISIGPSISPSSEETIQALETLVSPKLPSLEAPTSASNVMTAFATTPPISSIPPLQEPPRTPSPPLSSHPDIDTDIDSVASQPMELPENLSLEPKDQDSVLLEKDKVNNSSRSKKPKGLELAPTLVITSSDPSPLGILSPSLPTASLTPAFFSQTPIILTPSPLLSSIHFWSTLSPVAPLSPARLQGANTLFQFPSVLNSHGPFTLSGLDGPSTPGPFSPDLQKT
B5: JUP, P14923 (protein)
chain: MEVMNLMEQPIKVTEWQQTYTYDSGIHSGANTCVPSVSSKGIMEEDEACGRQYTLKKTTTYTQGVPPSQGDLEYQMSTTARAKRVREAMCPGVSGEDSSLLLATQVEGQATNLQRLAEPSQLLKSAIVHLINYQDDAELATRALPELTKLLNDEDPVVVTKAAMIVNQLSKKEASRRALMGSPQLVAAVVRTMQNTSDLDTARCTTSILHNLSHHREGLLAIFKSGGIPALVRMLSSPVESVLFYAITTLHNLLLYQEGAKMAVRLADGLQKMVPLLNKNNPKFLAITTDCLQLLAYGNQESKLIILANGGPQALVQIMRNYSYEKLLWTTSRVLKVLSVCPSNKPAIVEAGGMQALGKHLTSNSPRLVQNCLWTLRNLSDVATKQEGLESVLKILVNQLSVDDVNVLTCATGTLSNLTCNNSKNKTLVTQNSGVEALIHAILRAGDKDDITEPAVCALRHLTSRHPEAEMAQNSVRLNYGIPAIVKLLNQPNQWPLVKATIGLIRNLALCPANHAPLQEAAVIPRLVQLLVKAHQDAQRHVAAGTQQPYTDGVRMEEIVEGCTGALHILARDPMNRMEIFRLNTIPLFVQLLYSSVENIQRVAAGVLCELAQDKEAADAIDAEGASAPLMELLHSRNEGTATYAAAVLFRISEDKNPDYRKRVSVELTNSLFKHDPAAWEAAQSMIPINEPYGDDMDATYRPMYSSDVPLDPLEMHMDMDGDYPIDTYSDGLRPPYPTADHMLA
B6: ARID5B, Q14865 (protein)
chain: MEPNSLQWVGSPCGLHGPYIFYKAFQFHLEGKPRILSLGDFFFVRCTPKDPICIAELQLLWEERTSRQLLSSSKLYFLPEDTPQGRNSDHGEDEVIAVSEKVIVKLEDLVKWVHSDFSKWRCGFHAGPVKTEALGRNGQKEALLKYRQSTLNSGLNFKDVLKEKADLGEDEEETNVIVLSYPQYCRYRSMLKRIQDKPSSILTDQFALALGGIAVVSRNPQILYCRDTFDHPTLIENESICDEFAPNLKGRPRKKKPCPQRRDSFSGVKDSNNNSDGKAVAKVKCEARSALTKPKNNHNCKKVSNEEKPKVAIGEECRADEQAFLVALYKYMKERKTPIERIPYLGFKQINLWTMFQAAQKLGGYETITARRQWKHIYDELGGNPGSTSAATCTRRHYERLILPYERFIKGEEDKPLPPIKPRKQENSSQENENKTKVSGTKRIKHEIPKSKKEKENAPKPQDAAEVSSEQEKEQETLISQKSIPEPLPAADMKKKIEGYQEFSAKPLASRVDPEKDNETDQGSNSEKVAEEAGEKGPTPPLPSAPLAPEKDSALVPGASKQPLTSPSALVDSKQESKLCCFTESPESEPQEASFPSFPTTQPPLANQNETEDDKLPAMADYIANCTVKVDQLGSDDIHNALKQTPKVLVVQSFDMFKDKDLTGPMNENHGLNYTPLLYSRGNPGIMSPLAKKKLLSQVSGASLSSSYPYGSPPPLISKKKLIARDDLCSSLSQTHHGQSTDHMAVSRPSVIQHVQSFRSKPSEERKTINDIFKHEKLSRSDPHRCSFSKHHLNPLADSYVLKQEIQEGKDKLLEKRALPHSHMPSFLADFYSSPHLHSLYRHTEHHLHNEQTSKYPSRDMYRESENSSFPSHRHQEKLHVNYLTSLHLQDKKSAAAEAPTDDQPTDLSLPKNPHKPTGKVLGLAHSTTGPQESKGISQFQVLGSQSRDCHPKACRVSPMTMSGPKKYPESLSRSGKPHHVRLENFRKMEGMVHPILHRKMSPQNIGAARPIKRSLEDLDLVIAGKKARAVSPLDPSKEVSGKEKASEQESEGSKAAHGGHSGGGSEGHKLPLSSPIFPGLYSGSLCNSGLNSRLPAGYSHSLQYLKNQTVLSPLMQPLAFHSLVMQRGIFTSPTNSQQLYRHLAAATPVGSSYGDLLHNSIYPLAAINPQAAFPSSQLSSVHPSTKL
B7: EHF, Q9NZC4 (protein)
chain: MILEGGGVMNLNPGNNLLHQPPAWTDSYSTCNVSSGFFGGQWHEIHPQYWTKYQVWEWLQHLLDTNQLDANCIPFQEFDINGEHLCSMSLQEFTRAAGTAGQLLYSNLQHLKWNGQCSSDLFQSTHNVIVKTEQTEPSIMNTWKDENYLYDTNYGSTVDLLDSKTFCRAQISMTTTSHLPVAESPDMKKEQDPPAKCHTKKHNPRGTHLWEFIRDILLNPDKNPGLIKWEDRSEGVFRFLKSEAVAQLWGKKKNNSSMTYEKLSRAMRYYYKREILERVDGRRLVYKFGKNARGWRENEN
B8: BCL10, O95999 (protein)
chain: MEPTAPSLTEEDLTEVKKDALENLRVYLCEKIIAERHFDHLRAKKILSREDTEEISCRTSSRKRAGKLLDYLQENPKGLDTLVESIRREKTQNFLIQKITDEVLKLRNIKLEHLKGLKCSSCEPFPDGATNNLSRSNSDESNFSEKLRASTVMYHPEGESSTTPFFSTNSSLNLPVLEVGRTENTIFSSTTLPRPGDPGAPPLPPDLQLEEEGTCANSSEMFLPLRSRTVSRQ
B9: RAB7B, Q96AH8 (protein)
chain: MNPRKKVDLKLIIVGAIGVGKTSLLHQYVHKTFYEEYQTTLGASILSKIIILGDTTLKLQIWDTGGQERFRSMVSTFYKGSDGCILAFDVTDLESFEALDIWRGDVLAKIVPMEQSYPMVLLGNKIDLADRKVPQEVAQGWCREKDIPYFEVSAKNDINVVQAFEMLASRALSRYQSILENHLTESIKLSPDQSRSRCC

target: nucleoprotein N of Crimean-Congo hemorrhagic fever virus; assay: AlphaScreen luminescence signal relative to Venus negative control (fold); higher = stronger binding to CCHFV N
Method: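 AlphaScreen binding of cell-free made, FLAG-GST-tagged human transcription factors and regulators (crude translation products) to biotinylated N protein; signal as fold of the FLAG-GST-Venus control. One pass.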

Row | Binder | AlphaScreen luminescence signal
1 | B1 | 1.72
2 | B2 | 3.07
3 | B3 | 1.95
4 | B4 | 2.79
5 | B5 | 1.91
6 | B6 | 0.884
7 | B7 | 2.98
8 | B8 | 3.3
9 | B9 | 2
